This is an account of results in PMC4472343.

Results are given in words; binding and its absence hold for the method and conditions named. In cells and extracts the contact can be indirect.

The target of the assay is α7 nicotinic acetylcholine receptor subunit (human) (human (endogenous in temporal cortex)), P36544. Put plainly: pull-down; α7-containing receptors isolated on α-Bgt beads from 2% Triton X-100 extract of human temporal cortex (two biopsies); co-purified subunits detected by Western blot. The following applies: remark: other sources report otherwise.

B1: α4 nicotinic acetylcholine receptor subunit (human), P43681 27-627 (receptor)
chain: SSHVETRAHAEERLLKKLFSGYNKWSRPVANISDVVLVRFGLSIAQLIDVDEKNQMMTTNVWVKQEWHDYKLRWDPADYENVTSIRIPSELIWRPDIVLYNNADGDFAVTHLTKAHLFHDGRVQWTPPAIYKSSCSIDVTFFPFDQQNCTMKFGSWTYDKAKIDLVNMHSRVDQLDFWESGEWVIVDAVGTYNTRKYECCAEIYPDITYAFVIRRLPLFYTINLIIPCLLISCLTVLVFYLPSECGEKITLCISVLLSLTVFLLLITEIIPSTSLVIPLIGEYLLFTMIFVTLSIVITVFVLNVHHRSPRTHTMPTWVRRVFLDIVPRLLLMKRPSVVKDNCRRLIESMHKMASAPRFWPEPEGEPPATSGTQSLHPPSPSFCVPLDVPAEPGPSCKSPSDQLPPQQPLEAEKASPHPSPGPCRPPHGTQAPGLAKARSLSVQHMSSPGEAVEGGVRCRSRSIQYCVPRDDAAPEADGQAAGALASRNTHSAELPPPDQPSPCKCTCKKEPSSVSPSATVKTRSTKAPPPHLPLSPALTRAVEGVQYIADHLKAEDTDFSVKEDWKYVAMVIDRIFLWMFIIVCLLGTVGLFLPPWLAGMI
On to B1, for which the binding entry is listed as “no binding”.
